According to the supplement of paper PMC10126150:
Sequences with one replicate were seen in a single cluster, so their values are uncertain.

Tested on: ATP
Assay: switch fluorescence ratio, 500 uM ATP over buffer (Cy3 cluster intensity, sum of 5 cycles each) (fold (ratio)); higher = stronger signal-on switching upon ATP binding; sequences stand for … in TCGTCGGCAGCGTCAGATGTGTATAAGAGACAGTTTTTTTTTTTTTTTTTTTTTTTTT…TC
Details: aptamer strand: ATP DNA aptamer (quencher-CACCTGGGGGAGTATTGCGGAGGAAGG + anchor), 100 nM annealed; ATP concentration: 500 uM; one replicate
Outline: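 Values give the fluorescence ratio for each switch-domain sequence, averaged from per-cluster ratios of summed target-cycle to summed buffer-cycle Cy3 intensity. The Cy3-labelled switching-strand clusters sat on a modified Illumina MiSeq flow-cell, were annealed to 100 nM quencher-labelled ATP aptamer, and were imaged in selection buffer, then after 15 min with 500 uM ATP at 22 °C. Five cycles ran with NaOH stripping and re-annealing between them, and clusters outside 100-1000 RFU were excluded.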
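Further: ATP exposure 15 min at 22 °C before imaging.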

Row | Sequence | switch fluorescence ratio
1 | GTGCTTTAAT | 1
2 | GAACCGTGAC | 1.53
3 | TGTCACCTTA | 0.991
4 | AGCGCACACT | 1.25
5 | GCTCGCCCTA | 0.989
6 | GCCCACCGTA | 1.03
7 | ATGTAGAGTG | 0.969
8 | GGGGTCCTCT | 0.976
9 | AATCGGCAAA | 0.936
10 | AGCTTCTCAC | 1.13
11 | ATGTCATTTT | 1.03
12 | ACTGCGGTCC | 1.06
13 | GCCTTCAGGT | 0.951
14 | TTGTGCTG | 1.03
15 | CCACGTCTGG | 0.992
16 | GCGGGCGCGT | 0.972
17 | GTGCTTCAGT | 0.98
18 | AAAGGGTT | 1.07
19 | AATAGGTAGA | 1.01
20 | TAGGTGAAT | 1.04
21 | GGTGCTGCTG | 0.964
22 | CCACCTGGCT | 1.11
23 | CCTGATCTTT | 0.972

Row | Sequence | switch fluorescence ratio
24 | CCCCTGGAAC | 0.986
25 | TGCCGAGGGG | 1.05
26 | GGGCTCGCAT | 1.05
27 | GCGTCACATC | 1.11
28 | CGTAACGTTC | 1.01
29 | AGCTGCGTAT | 0.991
30 | ACATCCGGGG | 1.08
31 | CATTCAAAAA | 0.96
32 | GTTATAGTG | 1.03
33 | TCGAGCCTTG | 0.942
34 | TTTCATCTGC | 0.944
35 | CTTTACCGTA | 1.13
36 | ATTAGTTGCC | 1.03
37 | AGAATTAAAG | 0.934
38 | GGGAATTTTG | 0.962
39 | CAAACCTCGC | 1.07
40 | GAAGTTCGTT | 1.01
41 | TCATAATGTT | 0.994
42 | TCTGTAAAGA | 1.07
43 | CGTCCACACT | 1.26
44 | ACTCGGATCA | 0.965
45 | ATATCGCTCC | 1.11
46 | CAGGCTTTC | 1.02

Row | Sequence | switch fluorescence ratio
47 | TGACCGGGTT | 0.999
48 | GAGTTGGAC | 1
49 | CGCTCTCGA | 1.01
50 | CAATCGATTT | 1.05
51 | CGGTAGTGGT | 1.01
52 | CGATATGAT | 0.976
53 | TCCTATACAT | 1.02
54 | ACGATAGAAG | 1.07
55 | TACCGTCGGT | 1.01
56 | GGTGTTCGAC | 1.01
57 | CGAAAAACA | 1.02
58 | ACATTATAA | 1.01
59 | TTCGCGTCAG | 0.968
60 | CCTGGACGTA | 0.989
61 | GCCAAGTGGG | 0.973
62 | TGGGACTAGG | 1
63 | GGGCCTGACG | 1.03
64 | TGTCACTGCT | 1.03
65 | TTGAACGAGG | 1
66 | TTTCGTGCAA | 1.9
67 | CGTCAGGTAT | 0.971
68 | GGGTTAGAAT | 1.06
69 | GCACGCTTG | 1.04

Row | Sequence | switch fluorescence ratio
70 | CTCCATGAT | 1.09
71 | CGAGCACAAG | 1.4
72 | TTGTGAAAA | 1.09
73 | CGTGAATTCA | 1.04
74 | TCCGGGGCTT | 1.16
75 | TTGAAGGATT | 0.972
76 | GTGGTATAGT | 0.952
77 | ATAAGCTTGT | 1.04
78 | CGAGGCCAAG | 1.02
79 | AAATGTACAA | 1.09
80 | GGGTTTTCG | 0.949
81 | CTACGCCGTC | 1.11
82 | TGTCTGCAAA | 1.07
83 | ATCATGGTTT | 1.03
84 | AATAAGGGTA | 1.03
85 | GAGGTGTAAT | 0.975
86 | GGACTTCCA | 0.961
87 | GTGTCACTAT | 1.02
88 | GGCTCGTTCG | 0.978
89 | GAATATCGCA | 1.08
90 | AGAGCCTTGG | 1.02
91 | TACATGTGT | 0.978
92 | GATCGCGAAT | 1.22

Row | Sequence | switch fluorescence ratio
93 | ATTATTTAGC | 0.997
94 | GAGTTATGCC | 0.889
95 | ACTGGCAGAC | 1.49
96 | CGGTAGCAGC | 1.93
97 | TCACATGTGC | 0.971
98 | TCAATTAAC | 1.11
99 | AAGTCGGTA | 1.06
100 | GATAATCGAT | 1.01
101 | CTATATCCTG | 1.05
102 | TAGTGTCTC | 1.03
103 | TATGTCTAAT | 1.02
104 | TTTTCTGGG | 1
105 | CCTTGCAGAG | 1.96
106 | AAGGAATGAG | 0.981
107 | TCAGCTAGGT | 0.972
108 | CGAATTGTAA | 1
109 | CCAAAGTCAT | 1.2
110 | GAGGTTGTGA | 0.949
111 | ATCTAACAGG | 1.06
112 | GAATCCGTGG | 1.05
113 | GTCAGCGATG | 1.01
114 | CAGCCCGAAG | 1.06
115 | ACAGGTGGCG | 1

Row | Sequence | switch fluorescence ratio
116 | GCGATCGCGT | 1.01
117 | AGGTCTGGTT | 0.964
118 | ACGTTATGTA | 1.07
119 | GAGGCCGAAT | 1.04
120 | GGTACCAAGA | 1.05
121 | TCGTCCAATG | 1.07
122 | TACATGAGCT | 1.06
123 | ACAGAGGC | 1
124 | CCAATAAGA | 1.24
125 | AAATGTCGGT | 1.02
126 | AATGTGTGAG | 0.993
127 | GTAAATGTAA | 0.972
128 | TGGTTTTATG | 1.06
129 | TAGGGTCAAC | 0.988
130 | TTGTCACGGA | 1
131 | GACACGTAGA | 1.13
132 | TGTGCCAGGT | 1.08
133 | GTCTTAGTCA | 0.967
134 | TCGGGCCCTC | 1.02
135 | AGGGAGATCC | 1.01
136 | GCTTTGACAC | 0.976
137 | AAGGACGGAT | 0.998
138 | CCTTGGGGCT | 1.16

Row | Sequence | switch fluorescence ratio
139 | CATCTGGCT | 1.01
140 | TATACGTGTT | 1.01
141 | TCCTAAGAGG | 1.03
142 | ACCTAATGGA | 1
143 | CGACATCCGC | 2.67
144 | GTCACTATAG | 0.983
145 | ACTACTTTCT | 1.01
146 | TGATATCCAA | 1.02
147 | CCGAATCTGT | 1.04
148 | ATTGGCTGA | 0.962
149 | ATGGAGGAGT | 0.967
150 | GTGGGGATAC | 1.14
151 | AACTTTGAAG | 1.03
152 | TGGTAATCGC | 1.04
153 | AATGTGTAAG | 0.988
154 | AAATCGAATT | 1.01
155 | TGGACTATGT | 0.974
156 | CATCACGAAA | 1.21
157 | AGAGATAGTC | 1.02
158 | ACGTGTATTG | 1.01
